# In PMC11014668:
# Chains of the proteins cited; added tags and fusions are not shown.
# UniProt P40337: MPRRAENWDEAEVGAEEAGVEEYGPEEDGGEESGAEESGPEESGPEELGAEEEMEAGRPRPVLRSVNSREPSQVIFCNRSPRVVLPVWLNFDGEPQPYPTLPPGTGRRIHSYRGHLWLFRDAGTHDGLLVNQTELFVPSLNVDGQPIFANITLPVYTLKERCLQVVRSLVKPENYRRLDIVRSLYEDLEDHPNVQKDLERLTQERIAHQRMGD
# No constants are given. Whether binding was seen depends on the method and setting. In cells and extracts the contact can be indirect. Some results given as binding are weak or reduced against the parent protein; the word gives no strength. For part of these data: Tags and fused reporters may be left off the sequences shown.
# How the values were obtained:
# [1] = molecular target: endogenous VHL (human (endogenous in HKC; cell line of Figure 1F-H not named)) (UniProt P40337); test: co-IP; endogenous immunoprecipitation with antibodies to VHL, METTL3 or METTL14; cell line not named; EBC buffer, Protein G beads
# [2] = molecular target: endogenous VHL (human (endogenous in HKC; cell line of Figure 1F-H not named)) (UniProt P40337); test: co-IP; endogenous VHL immunoprecipitation from HKC cells
# IVT Flag-VHL = IVT Flag-VHL (UniProt P40337); test: pull-down; anti-Flag immunoprecipitation of IVT Flag-VHL with GST-tagged proteins expressed in vitro; EBC buffer, overnight at 4°C, in the presence of RNase
binding [1],binding [2],binding (IVT Flag-VHL),Binder
binds,binds,,"endogenous METTL14 (protein, UniProt Q9HCE5 1-456) MDSRLQEIRERQKLRRQLLAQQLGAESADSIGAVLNSKDEQREIAETRETCRASYDTSAPNAKRKYLDEGETDEDKMEEYKDELEMQQDEENLPYEEEIYKDSSTFLKGTQSLNPHNDYCQHFVDTGHRPQNFIRDVGLADRFEEYPKLRELIRLKDELIAKSNTPPMYLQADIEAFDIRELTPKFDVILLEPPLEEYYRETGITANEKCWTWDDIMKLEIDEIAAPRSFIFLWCGSGEGLDLGRVCLRKWGYRRCEDICWIKTNKNNPGKTKTLDPKAVFQRTKEHCLMGIKGTVKRSTDGDFIHANVDIDLIITEEPEIGNIEKPVEIFHIIEHFCLGRRRLHLFGRDSTIRPGWLTVGPTLTNSNYNAETYASYFSAPNSYLTGCTEEIERLRPKSPPPKSKSDRGGGAPRGGGRGGTSAGRGRERNRSNFRGERGGFRGGRGGAHRGGFPPR"
,,binds,"METTL14-GST (protein, UniProt Q9HCE5 1-456) MDSRLQEIRERQKLRRQLLAQQLGAESADSIGAVLNSKDEQREIAETRETCRASYDTSAPNAKRKYLDEGETDEDKMEEYKDELEMQQDEENLPYEEEIYKDSSTFLKGTQSLNPHNDYCQHFVDTGHRPQNFIRDVGLADRFEEYPKLRELIRLKDELIAKSNTPPMYLQADIEAFDIRELTPKFDVILLEPPLEEYYRETGITANEKCWTWDDIMKLEIDEIAAPRSFIFLWCGSGEGLDLGRVCLRKWGYRRCEDICWIKTNKNNPGKTKTLDPKAVFQRTKEHCLMGIKGTVKRSTDGDFIHANVDIDLIITEEPEIGNIEKPVEIFHIIEHFCLGRRRLHLFGRDSTIRPGWLTVGPTLTNSNYNAETYASYFSAPNSYLTGCTEEIERLRPKSPPPKSKSDRGGGAPRGGGRGGTSAGRGRERNRSNFRGERGGFRGGRGGAHRGGFPPR"
